# Laboratory results as given in the supplement of paper PMC4604168 (melanoma cell lines).
# The other results are listed elsewhere or left out. Single values are uncertain, as repeats are few or missing.
# Tested on: MEL-HO
# Assay: cell count relative to DMSO control; melanoma cells; higher = more viable cells
# Conditions: library dose: standard library concentration; 72 h
# 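Also: cells treated in 1,536-well plates, then fixed and DAPI-stained, with nuclei counted from automated high-throughput microscope images.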
row,SMILES,cell count [%]
1,"CS(=O)(=O)c1ccc(C(=O)Nc2ccc(Cl)c(-c3ccccn3)c2)c(Cl)c1 [vismodegib] + CCCCCCCCCCCC1=C(O)C(=O)C=C(O)C1=O [Embelin] (first compound 5 µM, partner dose 6 µM)",78.8
2,"CCCS(=O)(=O)Nc1ccc(F)c(C(=O)c2c[nH]c3ncc(Cl)cc23)c1F + COc1ccc(COc2ccc(Cc3cnc(N)nc3N)cc2OC)cc1 [GW2580] (first compound 0.4 µM, partner dose 5 µM)",84.6
3,"CN(c1ncccc1CNc1nc(Nc2ccc3c(c2)CC(=O)N3)ncc1C(F)(F)F)S(C)(=O)=O + CN(NC(=O)CC(=O)NN(C)C(=S)c1ccccc1)C(=S)c1ccccc1 [STA4783] (first compound 0.4 µM, partner dose 0.03 µM)",76.9
4,"C=C(c1ccc(C(=O)O)cc1)c1cc2c(cc1C)C(C)(C)CCC2(C)C [Bexarotene] + Cc1cc(N2CCOCC2)cc2[nH]c(-c3c(NC[C@@H](O)c4cccc(Cl)c4)cc[nH]c3=O)nc12 [BMS536924] (first compound 10 µM, partner dose 1 µM)",86.8
5,"CN(c1ncccc1CNc1nc(Nc2ccc3c(c2)CC(=O)N3)ncc1C(F)(F)F)S(C)(=O)=O + C#Cc1cccc(Nc2ncnc3cc(OCCOC)c(OCCOC)cc23)c1 [erlotinib] (first compound 0.4 µM, partner dose 4 µM)",62
6,"C=C(c1ccc(C(=O)O)cc1)c1cc2c(cc1C)C(C)(C)CCC2(C)C [Bexarotene] + CN(NC(=O)CC(=O)NN(C)C(=S)c1ccccc1)C(=S)c1ccccc1 [STA4783] (first compound 10 µM, partner dose 0.03 µM)",85.2
